From the supplement of paper PMC4967469
IC50 is the fitted dose that halves viability relative to control wells, and lower means more sensitive; where the fit passes the top or lowest dose, that dose stands as a limit. AUC is the area under the same curve over the 256-fold range up to the top dose, as a fraction: 1 means no effect, lower means more sensitive. An inferred top dose was calculated from the reported fits. For some of these results: Drugs with an entry number were screened twice under separate entries, and the two screens often disagree.

Assays:
Assay in all cases: Viability of human cancer cell lines after 72 h of drug (GDSC screen)
[1] = compound: CCNc1cc(NC2CCC(O)CC2)nc(Nc2ccc3c(ccn3Cc3ccccc3)c2)n1 [CGP-082996 (CINK4)]; settings: top dose 5.12 µM; top dose inferred
Experimental: (§1)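 Human cancer cell lines in 384-well plates, medium with 10% serum, drug for 72 h over a 256-fold dose range (nine 2-fold or five 4-fold steps up to the top dose). Adherent lines were fixed and stained with the nucleic acid dye Syto60, suspension lines read with resazurin; signal relative to control wells, capped at 0 and 100%. One two-parameter sigmoid per drug and line, fitted in a mixed model over all curves with the slope shared within a line.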

[2] = compound: COc1cc(-c2nn([C@H]3CC[C@H](N4CCN(C(C)=O)CC4)CC3)c3ncnc(N)c23)ccc1NC(=O)c1cc2ccccc2n1C [A-770041]; settings: top dose 5.12 µM; top dose inferred
Experimental: as §1

[3] = compound: Cc1ccc(-n2nc(C(C)(C)C)cc2NC(=O)Nc2ccc(OCCN3CCOCC3)c3ccccc23)cc1 [BIRB 0796]; settings: top dose 10 µM; top dose inferred
Experimental: as §1

[4] = compound: NC(=O)c1ccc(N(C(N)=O)c2c(F)cccc2F)nc1-c1ccc(F)cc1F [VX-702]; settings: top dose 2 µM; top dose inferred
Experimental: as §1

[5] = compound: Cc1cc(N2CCOCC2)cc2[nH]c(-c3c(NC[C@@H](O)c4cccc(Cl)c4)cc[nH]c3=O)nc12 [BMS-536924]
Experimental: as §1

[6] = compound: CNC(=O)c1ccc(Nc2cc(Nc3ccccc3S(=O)(=O)C(C)C)c3cc[nH]c3n2)nc1 [HG-5-113-01]; settings: top dose 10 µM; top dose inferred
Experimental: as §1

[7] = compound: O=C1NC(=O)c2c1c(-c1ccccc1Cl)cc1[nH]c3ccc(O)cc3c21 [Wee1 inhibitor 681640]; settings: top dose 2 µM; top dose inferred
Experimental: as §1

[8] = compound: O=C(c1cc(Cc2n[nH]c(=O)c3ccccc23)ccc1F)N1CCN(C(=O)C2CC2)CC1 [Olaparib]
Experimental: as §1

[9] = compound: Cc1cccc(-c2[nH]c(C(C)(C)C)nc2-c2ccc3nccnc3c2)n1 [SB-525334]; settings: top dose 20 µM; top dose inferred
Experimental: as §1

[10] = compound: COc1cc(N2CCN(C)CC2)ccc1Nc1ncc2c(n1)N(C)c1ccccc1C(=O)N2C [XMD8-85]; settings: top dose 8 µM; top dose inferred
Experimental: as §1

[11] = compound: CC(C)=CC[C@@H](O)C1=CC(=O)c2c(O)ccc(O)c2C1=O [Shikonin]; settings: top dose 16 µM; top dose inferred
Experimental: as §1

[12] = top dose 4 µM, screen: GDSC drug entry 1091, top dose inferred
[13] = top dose 5.12 µM, screen: GDSC drug entry 62
[14] = top dose 5 µM, screen: GDSC drug entry 1017, top dose inferred
[15] = top dose 10 µM, screen: GDSC drug entry 1495

| Cell Line | AUC [1] | IC50 [1] [µM] | AUC [2] | IC50 [2] [µM] | AUC [3] | IC50 [3] [µM] | AUC [4] | IC50 [4] [µM] | AUC [5, 12] | IC50 [5, 12] [µM] | AUC [5, 13] | IC50 [5, 13] [µM] | AUC [6] | IC50 [6] [µM] | AUC [7] | IC50 [7] [µM] | AUC [8, 14] | IC50 [8, 14] [µM] | AUC [8, 15] | IC50 [8, 15] [µM] | AUC [9] | IC50 [9] [µM] | AUC [10] | IC50 [10] [µM] | AUC [11] | IC50 [11] [µM] |
| --- | --- | --- | --- | --- | --- | --- | --- | --- | --- | --- | --- | --- | --- | --- | --- | --- | --- | --- | --- | --- | --- | --- | --- | --- | --- | --- |
| CAS-1 (glioma, adherent) | 0.976 | > 5.12 | 0.929 | > 5.12 | 0.955 | > 10 | 0.981 | > 2 | 0.95 | > 4 | 0.887 | > 5.12 | 0.89 | > 10 | 0.946 | > 2 | 0.974 | > 5 | 0.965 | > 10 | 0.98 | > 20 | 0.876 | > 8 | 0.47 | 0.807 |
| CGTH-W-1 (thyroid, adherent) | 0.96 | > 5.12 | 0.976 | > 5.12 | 0.903 | > 10 | 0.985 | > 2 | 0.913 | > 4 | 0.812 | 2.72 | 0.778 | 4.01 | 0.982 | > 2 | 0.964 | > 5 | 0.985 | > 10 | 0.984 | > 20 | 0.867 | 7.12 | 0.459 | 0.774 |
| COLO-668 (small cell lung carcinoma, adherent) | 0.985 | > 5.12 | 0.97 | > 5.12 | 0.904 | > 10 | 0.989 | > 2 | 0.914 | > 4 | 0.677 | 0.998 | 0.875 | 9.87 | 0.931 | > 2 | 0.988 | > 5 | 0.985 | > 10 | 0.858 | 16.4 | 0.919 | > 8 | 0.664 | 2.85 |
| COLO-684 (endometrium, suspension) | 0.97 | > 5.12 | 0.977 | > 5.12 | 0.974 | > 10 | 0.971 | > 2 | 0.977 | > 4 | 0.985 | > 5.12 | 0.813 | 6.28 | 0.97 | > 2 | 0.957 | > 5 | 0.961 | > 10 | 0.778 | 9.12 | 0.915 | > 8 | 0.357 | 0.381 |
| COLO-800 (melanoma, adherent) | 0.974 | > 5.12 | 0.96 | > 5.12 | 0.96 | > 10 | 0.936 | > 2 | 0.734 | 1.13 | 0.987 | > 5.12 | 0.53 | 0.752 | 0.956 | > 2 | 0.552 | 0.431 | 0.458 | 0.483 | 0.952 | > 20 | 0.905 | > 8 | 0.773 | 6.07 |
| COR-L95 (small cell lung carcinoma, adherent) | 0.96 | > 5.12 | 0.899 | > 5.12 | 0.946 | > 10 | 0.987 | > 2 | 0.936 | > 4 | 0.828 | 3.86 | 0.917 | > 10 | 0.987 | > 2 | 0.987 | > 5 | 0.984 | > 10 | 0.894 | > 20 | 0.954 | > 8 | 0.652 | 2.83 |
| CW-2 (large intestine, adherent) | 0.988 | > 5.12 | 0.989 | > 5.12 | 0.978 | > 10 | 0.989 | > 2 | 0.977 | > 4 | 0.988 | > 5.12 | 0.94 | > 10 | 0.985 | > 2 | 0.988 | > 5 | 0.988 | > 10 | 0.969 | > 20 | 0.988 | > 8 | 0.918 | > 16 |
| D-247MG (glioma, adherent) | 0.933 | > 5.12 | 0.862 | > 5.12 | 0.979 | > 10 | 0.98 | > 2 | 0.941 | > 4 | 0.907 | > 5.12 | 0.767 | 5.09 | 0.959 | > 2 | 0.899 | > 5 | 0.893 | > 10 | 0.98 | > 20 | 0.646 | 1.48 | 0.581 | 1.81 |
| D-263MG (glioma, adherent) | 0.976 | > 5.12 | 0.896 | > 5.12 | 0.983 | > 10 | 0.982 | > 2 | 0.895 | > 4 | 0.88 | > 5.12 | 0.77 | 4.6 | 0.937 | > 2 | 0.964 | > 5 | 0.926 | > 10 | 0.974 | > 20 | 0.827 | 6.36 | 0.601 | 2.01 |
| D-336MG (glioma, adherent) | 0.815 | 3.88 | 0.469 | 0.258 | 0.98 | > 10 | 0.945 | > 2 | 0.864 | > 4 | 0.582 | 0.571 | 0.728 | 3.42 | 0.937 | > 2 | 0.978 | > 5 | 0.972 | > 10 | 0.953 | > 20 | 0.495 | 0.483 | 0.563 | 1.57 |
| DG-75 (Burkitt lymphoma, suspension) | 0.945 | > 5.12 | 0.933 | > 5.12 | 0.972 | > 10 | 0.955 | > 2 | 0.951 | > 4 | 0.947 | > 5.12 | 0.777 | 4.07 | 0.848 | 1.52 | 0.969 | > 5 | 0.957 | > 10 | 0.965 | > 20 | 0.85 | 6.19 | 0.495 | 0.967 |
| DMS-114 (small cell lung carcinoma, adherent) | 0.979 | > 5.12 | 0.98 | > 5.12 | 0.964 | > 10 | 0.985 | > 2 | 0.84 | 3.39 | 0.853 | 4.99 | 0.849 | 9.26 | 0.983 | > 2 | 0.978 | > 5 | 0.946 | > 10 | 0.911 | > 20 | 0.931 | > 8 | 0.912 | > 16 |
| DND-41 (T-cell leukaemia, suspension) | 0.911 | > 5.12 | 0.968 | > 5.12 | 0.983 | > 10 | 0.983 | > 2 | 0.87 | 2.99 | 0.78 | 1.85 | 0.73 | 2.56 | 0.964 | > 2 | 0.989 | > 5 | 0.968 | > 10 | 0.957 | > 20 | 0.781 | 2.91 | 0.421 | 0.627 |
| Daudi (Burkitt lymphoma, suspension) | 0.832 | 2.7 | 0.694 | 1.03 | 0.989 | > 10 | 0.988 | > 2 | 0.856 | 2.59 | 0.929 | > 5.12 | 0.703 | 2.13 | 0.987 | > 2 | 0.986 | > 5 | 0.94 | > 10 | 0.911 | > 20 | 0.889 | 7.06 | 0.613 | 1.95 |
| EC-GI-10 (oesophagus, adherent) | 0.989 | > 5.12 | 0.989 | > 5.12 | 0.96 | > 10 | 0.988 | > 2 | 0.974 | > 4 | 0.989 | > 5.12 | 0.706 | 2.37 | 0.989 | > 2 | 0.988 | > 5 | 0.937 | > 10 | 0.982 | > 20 | 0.989 | > 8 | 0.95 | > 16 |
| ES1 (Ewing sarcoma, adherent) | 0.973 | > 5.12 | 0.981 | > 5.12 | 0.945 | > 10 | 0.985 | > 2 | 0.683 | 0.805 | 0.708 | 1.22 | 0.643 | 1.54 | 0.965 | > 2 | 0.813 | 2.64 | 0.659 | 1.71 | 0.819 | 11.1 | 0.959 | > 8 | 0.41 | 0.569 |
| ES4 (Ewing sarcoma, adherent) | 0.92 | > 5.12 | 0.967 | > 5.12 | 0.975 | > 10 | 0.965 | > 2 | 0.854 | 3.92 | 0.593 | 0.601 | 0.702 | 2.54 | 0.799 | 1.12 | 0.874 | > 5 | 0.691 | 2.35 | 0.548 | 1.73 | 0.921 | > 8 | 0.568 | 1.57 |
| ES5 (Ewing sarcoma, adherent) | 0.978 | > 5.12 | 0.981 | > 5.12 | 0.951 | > 10 | 0.964 | > 2 | 0.709 | 1.07 | 0.949 | > 5.12 | 0.637 | 1.58 | 0.867 | > 2 | 0.822 | 3.52 | 0.858 | > 10 | 0.861 | > 20 | 0.874 | > 8 | 0.63 | 2.42 |
| ES6 (Ewing sarcoma, adherent) | 0.864 | > 5.12 | 0.653 | 0.945 | 0.94 | > 10 | 0.982 | > 2 | 0.922 | > 4 | 0.493 | 0.306 | 0.795 | 5.92 | 0.976 | > 2 | 0.982 | > 5 | 0.963 | > 10 | 0.941 | > 20 | 0.865 | > 8 | 0.679 | 3.58 |
| ES7 (Ewing sarcoma, adherent) | 0.938 | > 5.12 | 0.954 | > 5.12 | 0.957 | > 10 | 0.975 | > 2 | 0.922 | > 4 | 0.954 | > 5.12 | 0.537 | 0.789 | 0.902 | > 2 | 0.873 | > 5 | 0.664 | 1.81 | 0.805 | 10.4 | 0.898 | > 8 | 0.397 | 0.517 |
